Data reported in PubChem BioAssay AID588342 (National Center for Advancing Translational Sciences (NCATS), 2011).
Values joined by “and” are separate entries in the source; they are usually repeats but may differ in a detail not shown here. Equal values may be shown once. In all, about 360,000 compounds went through this assay and about 25,000 (6.9%) were called active. This list was built around the results that the source calls inconclusive (neither active nor inactive); the mix of calls is not that of the screen. The call rests on the fitted dose curve; in most records, active means well fitted inhibition curve with a large enough effect; inconclusive means small, poorly fitted or top-dose-only effect; inactive means flat fitted curve, though single readings scatter. Potencies of inconclusive entries are doubtful fits and often do not repeat.

Biological target: Luciferin 4-monooxygenase (Photinus pyralis) (UniProt P08659)
UniProt P08659, sequence (P08659 whole entry, looked up): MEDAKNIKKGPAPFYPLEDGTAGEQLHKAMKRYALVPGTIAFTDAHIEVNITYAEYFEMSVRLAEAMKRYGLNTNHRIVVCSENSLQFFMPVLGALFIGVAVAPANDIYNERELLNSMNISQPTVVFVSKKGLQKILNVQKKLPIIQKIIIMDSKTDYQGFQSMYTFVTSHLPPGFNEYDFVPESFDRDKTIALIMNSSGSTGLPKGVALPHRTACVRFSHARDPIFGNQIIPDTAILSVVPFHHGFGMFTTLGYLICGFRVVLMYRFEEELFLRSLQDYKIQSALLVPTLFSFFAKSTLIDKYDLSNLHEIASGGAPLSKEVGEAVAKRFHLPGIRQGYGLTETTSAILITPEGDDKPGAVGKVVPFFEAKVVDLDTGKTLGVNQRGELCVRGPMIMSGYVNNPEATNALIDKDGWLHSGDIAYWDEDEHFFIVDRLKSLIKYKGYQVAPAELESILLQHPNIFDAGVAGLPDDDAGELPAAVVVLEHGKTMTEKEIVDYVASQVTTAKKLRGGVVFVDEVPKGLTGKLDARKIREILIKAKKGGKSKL
Experiment: qHTS profiling assay for firefly luciferase inhibitor/activator using purifed enzyme and Km concentrations of substrates (counterscreen for miR-21 project); further: nearly all actives have a fitted effect of over 55% in size;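 on activity change, negative = inhibition: plate controls were vehicle for no effect and reference inhibitor for full effect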
Settings: purified FLuc, luminescence inhibition; activity change, negative = inhibition: at 57.5 µM (top of the series)
How it was run: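 Purified P. pyralis luciferase (10nM final) with 10uM D-luciferin and 10uM ATP (Km levels) in 50mM Tris acetate pH 7.5, 10mM Mg acetate, 0.01% Tween-20, 0.05% BSA; qHTS 6-point titration, ~60 µM downward; luminescence read.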
Potency means the concentration at half of the fitted maximal effect; tags describe the fitted curve by direction and shape.

Row | Structure (SMILES) | Potency | activity change, negative = inhibition
1 | O=C(c1cc(COc2cccc(C(F)(F)F)c2)on1)N1C[C@H]2CC[C@H]1C2 | active: 15.1 µM | –
2 | O=C(CSc1nnc(-c2ccc(Cl)s2)o1)N1CCCc2ccccc21 | inconclusive: 33.8 µM [inhibitor, partial curve, poor fit] | –
3 | COc1ccc(/C(O)=C2/C(=O)C(=O)N(c3ccccn3)C2c2ccc(C(C)C)cc2)cc1 (stereo not drawn) | inconclusive: 37.9 µM [inhibitor, partial curve, poor fit] | –
4 | Cn1cc([N+](=O)[O-])c(C(=O)N2CCN(Cc3ccc4c(c3)OCO4)CC2)n1 | – | inactive: -2.69%
5 | Cc1cc(C)c(C(=O)COC(=O)c2cc([N+](=O)[O-])ccc2N2CCOCC2)cc1C | – | inactive: -0.392%
6 | COc1ccc(CCNC(=O)CSc2nnc(Cc3cccn3C)n2C)cc1OC | – | inactive: 2.31%
7 | O=C(NCC1CCCO1)c1ccc2c(=O)n(CC3CCCO3)c(SCC(=O)N3CCCC3)nc2c1 (stereo not drawn) | – | inactive: -3.84%
8 | Cc1nn(CCCC(=O)Nc2cccc(C(F)(F)F)c2)c(=O)c2nn(-c3ccccc3)c(C)c12 | – | inactive: 3.33%
9 | CCN(C(=O)c1c(C)noc1C)c1c(N)n(Cc2ccccc2)c(=O)[nH]c1=O | – | inactive: 2.02%
10 | Cc1ccc(C(=O)CC(C(=O)O)n2cncn2)cc1 (stereo not drawn) | inconclusive: 23.9 µM [inhibitor, partial curve, poor fit] | –
11 | CCSc1nnc(NC(=O)c2cc3c(s2)CCCC3)s1 | inconclusive: 3.38 µM [inhibitor, partial curve, poor fit] | –
12 | CC(C)(C)c1ccc(C(=O)NCCC(=O)NCc2cccs2)cc1 | – | inactive: -12.5%
13 | COc1cccc2c1C(=O)c1c(O)c3c(c(O)c1C2=O)C[C@@](O)(C(C)=O)C[C@@H]3O[C@H]1C[C@H](N)[C@H](O)[C@H](C)O1 | inconclusive: 26.9 µM [inhibitor, single point] | –
14 | Cc1ccc2c(=O)c(C(=O)c3ccccc3)cn(CC(=O)Nc3ccccc3C)c2n1 | – | inactive: 0.994%
15 | O=C(COc1ccccc1F)Nc1ccc2nc(SCC(=O)N3CCCC3)sc2c1 | inconclusive: 37.9 µM [inhibitor, single point] | –
16 | CCOc1ccccc1NS(=O)(=O)c1cc2c3c(c1)CC(=O)N3CCC2 | – | inactive: 0.0396%
17 | COc1ccc(C(=O)NCCn2cc(SCC(=O)Nc3ccc(F)cc3)c3ccccc32)cc1 | inconclusive: 15.1 µM [inhibitor, partial curve] | –
18 | O=C(c1cccs1)N1CCC(c2ccccc2)C1 (stereo not drawn) | active: 21.3 µM | –
19 | COc1ccccc1/C=C/C(=O)OCC(=O)N1CCN(S(=O)(=O)c2ccc(C)cc2C)CC1 | – | inactive: 0.48%
20 | O=C(NCc1cccs1)C1CCN(c2ccc(S(=O)(=O)N3CCOCC3)cc2Cl)CC1 | – | inactive: 1.02%
21 | CCCCCc1nnc(NC(=O)C(=O)OCC)s1 | – | inactive: -13.9%
22 | CC(C)(C)S(=O)(=O)c1cnc(-c2ccc(Cl)cc2)nc1N | inconclusive: 4.78 µM [inhibitor, partial curve, poor fit] | –
23 | Cc1cccc(NC(=O)CCc2c(C)nn(-c3ccc(N4CCOCC4)nn3)c2C)c1 | active: 15.1 µM | –
24 | CN(C(=O)c1ccc(Br)o1)C1CCCCC1 | inconclusive: 21.3 µM [inhibitor, partial curve, poor fit] | –
25 | Cc1ccc(-c2csc(-c3c[nH]c4ccccc34)n2)cc1 | active: 12 µM | –

Row | Structure (SMILES) | Potency | activity change, negative = inhibition
26 | O=C(NCCc1ccccn1)c1cncc(Br)c1 | – | inactive: -1.59%
27 | CCOC(=O)C1CCN(Cc2c(F)cccc2Cl)CC1 | – | inactive: 6.97%
28 | COc1ccc(-c2nc3ccccc3c(=O)n2CCc2ccc(O)cc2)cc1 | active: 21.3 µM | –
29 | CCC(=O)Nc1ccc(C(=O)Nc2ccc3c(c2)OCO3)cc1 | inconclusive: 19 µM [inhibitor, single point] | –
30 | CCCOc1ccc(C2c3c(-c4ccccc4O)n[nH]c3C(=O)N2Cc2cccnc2)cc1 (stereo not drawn) | – | inactive: -13.9%
31 | NC(Cc1c[nH]c2ccccc12)C(=O)NCc1ccccc1 (stereo not drawn) | – | inactive: -4.25%
32 | CCOc1ccc(/C=N/NS(=O)(=O)c2ccc(C)cc2)cc1OC | – | inactive: -2.48%
33 | CCN(CC)c1ccc(NC(=O)C2CC3CCC2C3)cc1 (stereo not drawn) | inconclusive: 23.9 µM [inhibitor, single point] | –
34 | CC1CCC2(CC1)OCC1(CCC3(COC4(CCC(C)CC4)OC3)C1=O)CO2 (stereo not drawn) | – | inactive: -9.93%
35 | C=CCOC(=O)c1sc(NC(=O)c2ccc(OC)cc2)nc1C | inconclusive: 7.57 µM [inhibitor, partial curve] | –
36 | CCOc1cc(C(=O)NCc2nc(-c3cccc(C)c3)no2)cc(OCC)c1OCC | – | inactive: -6.73%
37 | CCOc1cccc(-c2csc(C3COc4ccccc4O3)n2)c1 (stereo not drawn) | active: 2.13 µM | –
38 | Clc1ccc(-c2csc(-c3ccncc3)n2)cc1 | inconclusive: 6.75 µM [inhibitor, partial curve] | –
39 | Cc1ccc2oc(=O)n(CC(=O)OCCC(C)C)c2c1 | inconclusive: 19 µM [inhibitor, partial curve] | –
40 | C=CCSC1=NNC(c2ccc(C(C)(C)C)cc2)=NN1 | inconclusive: 37.9 µM [inhibitor, single point] | –
41 | COc1ccccc1NS(=O)(=O)c1cc(N)ccc1N1CCCCC1 | inconclusive: 37.9 µM [inhibitor, partial curve, poor fit] | –
42 | COc1ccc(-c2cc3nc(C)c(CCC(=O)N4CCN(c5ccccc5F)CC4)c(C)n3n2)c(OC)c1 | – | inactive: -10.3%
43 | COc1ccc(/C=N/NC(=O)CN2CCSCC2)cc1C | inconclusive: 26.9 µM [inhibitor, partial curve, poor fit] | –
44 | COc1cc(OC)cc(C(=O)N=c2sc3ccccc3n2C)c1 | inconclusive: 4.78 µM [inhibitor, full curve] | –
45 | Cc1ccc(CNc2ncnc3onc(C)c23)cc1 | – | inactive: -1.26%
46 | Cc1nn2c(=O)cc(COc3ccc(/C=C(\C#N)C(=O)Nc4ccccc4)cc3Cl)nc2s1 | – | inactive: 0.0019%
47 | COc1ccc(-c2ccc(CCC(=O)O)n2-c2ccc(O)cc2)cc1 | inconclusive: 30.1 µM [inhibitor, partial curve, poor fit] | –
48 | CCOC(=O)N1CCN(C(=S)NC(=O)/C=C/c2ccc(C)cc2)CC1 | active: 13.5 µM | –
49 | O=C(O)c1ccc(NCc2ccc3c(c2)OCO3)cc1 | inconclusive: 16.9 µM [inhibitor, partial curve] | –
50 | O=C(CSc1nc2ccccc2[nH]1)c1ccc(Cl)s1 | inconclusive: 23.9 µM [inhibitor, single point] | –

Row | Structure (SMILES) | Potency | activity change, negative = inhibition
51 | Cc1ccc(CNC(=O)Cc2noc3ccccc23)cc1 | active: 6.75 µM | –
52 | Brc1ccc2c(c1)NC(c1cccnc1)=NC(c1ccccc1)=N2 | inconclusive: 37.9 µM [inhibitor, single point] | –
53 | CCN1CCCC1CNc1ncnc2c1[nH]c1ccc(Cl)cc12 (stereo not drawn) | inconclusive: 37.9 µM [inhibitor, partial curve, poor fit] | –
54 | Cc1cccc(NC(=O)CCC(=O)NCCO)c1 | inconclusive: 5.36 µM [inhibitor, partial curve, poor fit] | –
55 | Cc1ccc(CN2c3ccccc3-c3nc(SCC(=O)Nc4c(C)cc(C)cc4C)ncc3S2(=O)=O)cc1 | – | inactive: 3.19%
56 | Cc1ccc(CNC(=O)COC(=O)c2cccc(S(=O)(=O)N3CCCCC3)c2)cc1 | inconclusive: 15.1 µM [inhibitor, partial curve, poor fit] | –
57 | O=C(O)c1cccc2c1C(=O)c1ccc(N3CCCCC3)cc1S2(=O)=O | inconclusive: 10 µM [inhibitor, partial curve, poor fit] | –
58 | COc1ccc(NC(=O)Nc2cc(-c3cn4cccnc4n3)ccc2OC)cc1 | inconclusive: 0.675 µM [inhibitor, full curve, poor fit] | –
59 | Cc1ccc(NCc2ccccc2O)cc1C | inconclusive: 37.9 µM [inhibitor, single point] | –
60 | CCOC(=O)N1CCC(=NNC(=O)c2cc3ccccc3cc2O)CC1 | inconclusive: 26.9 µM [inhibitor, single point] | –
61 | C=CCOn1c(=O)c(-c2cc3ccccc3o2)[n+]([O-])c2ccccc21 | inconclusive: 10.7 µM [inhibitor, partial curve] | –
62 | CCOc1ccccc1NC(=O)N1CCc2c(sc3c2CCCC3)C1c1ccccc1 (stereo not drawn) | – | inactive: -1.93%
63 | Cc1ccc(Cl)c2c1=NC(=O)C=2c1[nH]c(=S)[nH]c1O | active: 19 µM | –
64 | CCOc1ccc(S(=O)(=O)N(CC(=O)N/N=C/c2ccc(-c3ccc([N+](=O)[O-])cc3)o2)c2ccccc2)cc1 | – | inactive: 0.482%
65 | CC(C)CN(C(=O)CSc1ncnc2sccc12)C1CCS(=O)(=O)C1 (stereo not drawn) | – | inactive: 3.7%
66 | CN(C)S(=O)(=O)c1ccc(Cl)c(C(=O)Nc2cccc([N+](=O)[O-])c2)c1 | – | inactive: 0.002%
67 | Cc1ccc(C(=O)NCC(=O)OCCCOC(=O)CNC(=O)c2ccc(C)c(C)c2)cc1C | inconclusive: 23.9 µM [inhibitor, partial curve] | –
68 | CCOC(=O)CN1C(=O)/C(=C/c2ccc(Cl)cc2)Oc2ccccc21 | inconclusive: 26.9 µM [inhibitor, partial curve, poor fit] | –
69 | COc1cc2nc(Nc3ccc(C)c(C)c3)nc(N)c2cc1OC | inconclusive: 16.9 µM [inhibitor, partial curve] and inconclusive: 19 µM [inhibitor, partial curve] | –
70 | COc1cccc(C2=NOC(C(=O)Nc3ccc(C(C)=O)cc3)C2)c1 (stereo not drawn) | inconclusive: 37.9 µM [inhibitor, single point] | –
71 | Cc1cc(NC(=O)CSc2nc3c(c(=O)n(C)c(=O)n3C)n2C(C)C)no1 | – | inactive: -1.81%
72 | Cc1ccc(C(=O)OCc2nnc(-c3ccc(Br)cc3)o2)cc1 | inconclusive: 23.9 µM [inhibitor, partial curve, poor fit] | –
73 | O=C(CSCCO)Nc1ccc(C23CC4CC(CC(C4)C2)C3)cc1 | inconclusive: 4.26 µM [inhibitor, partial curve] | –
